In the supplement of paper PMC3334620:
Whole data set: some 33,000 sequences, median “E-score (-0.5 to 0.5)” near -0.054, cut for the highest 2% near 0.35. Some of the results follow.

Each sequence was assayed against T1, Stb5 (UniProt P38699) (assay: PBM E-score (8-mer binding enrichment) (E-score (-0.5 to 0.5)); higher = stronger / more preferred TF binding; most listed sequences are background and not binding sites). Conditions: protein concentration: 200 nM; construct: GST-full length.
T1 sequence: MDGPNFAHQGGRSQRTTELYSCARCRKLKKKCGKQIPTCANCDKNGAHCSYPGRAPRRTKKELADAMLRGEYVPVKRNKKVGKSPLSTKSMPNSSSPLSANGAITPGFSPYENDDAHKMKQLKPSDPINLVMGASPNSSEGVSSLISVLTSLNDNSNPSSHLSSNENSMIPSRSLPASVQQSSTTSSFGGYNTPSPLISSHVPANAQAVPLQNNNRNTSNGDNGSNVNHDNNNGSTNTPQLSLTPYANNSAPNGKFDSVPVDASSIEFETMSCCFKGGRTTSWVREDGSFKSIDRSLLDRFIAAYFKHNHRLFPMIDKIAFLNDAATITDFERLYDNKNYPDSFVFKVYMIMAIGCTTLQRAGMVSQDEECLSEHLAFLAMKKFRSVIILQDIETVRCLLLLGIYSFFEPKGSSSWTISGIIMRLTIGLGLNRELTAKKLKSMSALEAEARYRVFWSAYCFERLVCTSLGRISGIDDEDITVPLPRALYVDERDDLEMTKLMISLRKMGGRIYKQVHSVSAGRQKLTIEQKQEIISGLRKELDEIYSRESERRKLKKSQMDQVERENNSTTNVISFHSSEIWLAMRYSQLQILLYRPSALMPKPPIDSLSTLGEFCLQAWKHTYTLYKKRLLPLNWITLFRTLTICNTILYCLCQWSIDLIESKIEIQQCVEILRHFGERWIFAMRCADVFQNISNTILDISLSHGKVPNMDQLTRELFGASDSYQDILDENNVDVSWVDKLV
Description: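 Universal 'all 10-mer' protein binding microarrays (Agilent AMADID 015681) probed with GST-tagged S. cerevisiae TFs (full-length or DBD) made by in vitro transcription/translation (PURExpress), about 100-200 nM. Bound TF was detected with fluorescent anti-GST. Each ungapped 8-mer (which stands for itself and its reverse complement) is scored by the PBM enrichment score (E-score), a modified Wilcoxon-Mann-Whitney statistic from -0.5 to +0.5, computed with the Universal PBM Analysis Suite. Scale: above 0.35 generally sequence-specific binding.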

Row | Sequence | PBM E-score
1 | ACTCGGTC | 0.147
2 | GCATAAAC | -0.0373
3 | ATCCTGTC | 0.0461
4 | AACATAGT | 0.00286
5 | ATAGCTCA | -0.209
6 | CACTAAGA | -0.0925
7 | CGGGCCAA | 0.22
8 | AAAAAGAC | 0.0177
9 | AGCTGATA | 0.0497
10 | TCAGACGA | -0.249
11 | CACATCAC | -0.0565
12 | AAGAGGAC | -0.134
13 | CTAAGTAC | 0.0899
14 | AGAGCAAT | -0.0796
15 | AAGAGCGG | 0.333
16 | TCACCCGA | 0.089
17 | CACCTTTC | -0.058
18 | ATATTTAA | -0.0163
19 | GACATTGC | -0.109
20 | ATGGTCCC | -0.0702
21 | CGGTACTC | 0.201
22 | GGCGTGTA | 0.0147
23 | ATCGTAAA | -0.299
24 | GCAACGCA | -0.0493
25 | CTGGGTGA | -0.179

Row | Sequence | PBM E-score
26 | CGGTGTCC | 0.369
27 | AAGATAAC | 0.00498
28 | TGCCCTAA | -0.114
29 | ACTTTTTA | -0.0299
30 | GCAGCGCC | 0.184
31 | ACGTAGCT | -0.182
32 | AAATCTAA | -0.248
33 | AGTTTTGA | -0.0632
34 | ACTCCAAC | -0.0394
35 | GATCCTCC | -0.0359
36 | ACTCTAAT | -0.173
37 | GCAGCAAA | -0.235
38 | GGGATTGA | -0.157
39 | CGGGGGGC | 0.0273
40 | CACGTGTC | -0.219
41 | GGGCCCAA | 0.0646
42 | GTGCCAGA | -0.0982
43 | GGTATGCA | -0.172
44 | CGGTATAC | 0.183
45 | ATCGATGG | -0.137
46 | AAGGTTGC | -0.0796
47 | AGAGGCCT | -0.239
48 | GGCTCGAC | -0.113
49 | GCCTCACC | -0.157
50 | CGCTTGGA | -0.0324

Row | Sequence | PBM E-score
51 | TATCTCGA | -0.107
52 | AGTGTAAA | -0.149
53 | CAGTATGC | -0.117
54 | CAATGTCC | 0.138
55 | CCATATTC | 0.00817
56 | ATCAGCCC | -0.035
57 | ACCTTCGG | 0.165
58 | ATGTAACA | -0.0395
59 | AAAGGAAA | -0.125
60 | CTCGGCGA | 0.138
61 | GTGTTTCA | 0.1
62 | GCTATAAC | 0.231
63 | AGGAAGGC | -0.188
64 | GCCTGAAC | -0.0873
65 | CCCTACGC | -0.138
66 | CCCCACCC | 0.0191
67 | CTTCAGAA | 0.017
68 | GGGCCACC | -0.0833
69 | AGGGCCTG | -0.335
70 | GAACATTA | -0.0177
71 | ATTGCCTG | -0.106
72 | AACTGATG | -0.153
73 | CACGGATG | 0.0738
74 | CCATCACA | -0.122
75 | AAGCGCCC | -0.01

Row | Sequence | PBM E-score
76 | AAAGGGTA | -0.181
77 | CGAGTCTA | -0.128
78 | TCAAATCA | -0.251
79 | CAAGGGGA | -0.129
80 | AAAAACCT | -0.126
81 | CTGCCCGA | 0.0717
82 | AGTATTAG | -0.00323
83 | AAATCGGC | 0.313
84 | AGCAACCA | -0.068
85 | CGGTGACC | 0.141
86 | ACTCACCT | -0.384
87 | AAAGAGCA | -0.184
88 | GTTACCAA | -0.0674
89 | ACAGAGTC | -0.115
90 | GAGTTTCC | 0.0707
91 | GTTGCTCA | -0.146
92 | AGCGCCAA | -0.123
93 | CGGGACAG | 0.0783
94 | CGGACAGC | 0.0844
95 | CCGAGAGA | 0.111
96 | AACTCATA | 0.0359
97 | AGTTATAT | 0.16
98 | ACGCGCGA | -0.0608
99 | GTACGAAA | -0.261
100 | GAACTATA | 0.203

Row | Sequence | PBM E-score
101 | ACTCTAGG | -0.144
102 | ACATACGA | -0.2
103 | ACATCGTA | 0.017
104 | AGTACTGG | -0.218
105 | TCGTTCCA | -0.146
106 | ATGTTTGC | -0.179
107 | ATTAAAGA | -0.0748
108 | GTGATGGA | -0.0207
109 | TCCGTGCA | 0.23
110 | ACACAGCG | 0.108
111 | AGGCCTGG | -0.089
112 | TAGTCCAA | -0.153
113 | CGTTCCAC | 0.134
114 | ATAGACTC | -0.204
115 | CAACCTTA | -0.237
116 | CTTAATTA | 0.112
117 | CAGACTAC | -0.313
118 | GAGTAGCA | -0.0403
119 | CAAGCCAA | -0.0955
120 | ATCATTTC | -0.113
121 | ATACAACG | -0.0128
122 | AGTACAAG | -0.147
123 | AACACCAA | -0.0275
124 | ACAGCACG | -0.0464
125 | CGCGTCGA | 0.073

Row | Sequence | PBM E-score
126 | AAAGGCAC | 0.0273
127 | ACGTACGT | -0.434
128 | ACTACTCA | -0.24
129 | CGGCCTAG | -0.00214
130 | CTAAAACC | 0.234
131 | ACCGAGCG | 0.32
132 | CTGGCTTA | -0.23
133 | GGTTCGCA | -0.0754
134 | AATTTTAA | 0.246
135 | ATAGCCAA | -0.0873
136 | GCGGTGCA | 0.259
137 | AATGAGTA | 0.0524
138 | ATTAAATG | 0.0899
139 | CTGTACCC | 0.0534
140 | GGTAAAGA | 0.102
141 | CGTCTGAA | -0.211
142 | AAATGCCC | 0.0775
143 | ACCTTCCG | 0.0231
144 | CTATTAGC | 0.00248
145 | ACGATTTG | -0.225
146 | AACTGGGT | -0.161
147 | CATTTTCA | -0.147
148 | ACACTCCC | -0.0602
149 | CAGGAATA | -0.12
150 | GGTCCGTA | 0.332

Row | Sequence | PBM E-score
151 | TTCCGAAA | 0.203
152 | CCAAGTTA | -0.107
153 | ATTTAATC | 0.169
154 | TAAGTACA | -0.153
155 | GGGTCCAA | 0.0197
156 | CGGACCTA | 0.466
157 | GGAATAAA | 0.0613
158 | ATCATAAA | -0.141
159 | GGATGGAA | -0.208
160 | AATGGCCT | 0.103
161 | ATCAGCAG | -0.0861
162 | CACTGGAG | -0.178
163 | AGGAGCCT | -0.305
164 | ACAGCGTC | 0.0575
165 | GCTTGGGA | -0.136
166 | ACATCCGG | 0.322
167 | CGGACGCC | 0.205
168 | ACATAGCA | 0.0503
169 | TAGGAATA | 0.0605
170 | ACTGCTCG | -0.224
171 | CTATTTAA | 0.0779
172 | AGTCTGAG | -0.222
